Results reported in ChEMBL document CHEMBL4888484, “Replenishing the malaria drug discovery pipeline: Screening and hit evaluation of the MMV Hit Generation Library 1 (HGL1) against asexual blood stage Plasmodium falciparum ,using a nano luciferase reporter read-out” (2022).
In all, about 150,000 compounds went through this assay and about 540 (0.36%) showed an effect of 50% or more. Some of the results follow.

What follows are compounds tested on Plasmodium falciparum (assay: Primary screen in NF54 nanoGlo assay, in single point, at 2uM, 72h; a lower Z score goes with more inhibition). Conditions: timepoint 72 hour.
Format: functional, Erythrocyte

Row | SMILES | % Inhibition | Z score
1 | Cc1ccc(C)c(CN(C)C(=O)c2cn3c(n2)CCC3)c1 | -5% | 0.66
2 | CCOc1cc(C(=O)N(Cc2ccc(OC(F)F)c(OC)c2)C2CC2)ccc1OCc1ccccn1 | 4% | -0.41
3 | Oc1cncc(-c2nc(-c3cc(F)c(F)c(F)c3)no2)c1 | -11% | 1.43
4 | CC(CO)(NCC1CCOC1)c1cccc(O)c1 (centres undefined) | -9% | 1.33
5 | Cn1cc([C@@H](NC(=O)c2ccc(-n3cnnn3)cc2)C2CC(O)C2)cn1 (some centres undefined) | -5% | 0.5
6 | Cc1cncc(CCC(=O)N2C[C@H](CS(N)(=O)=O)[C@@H](C)C2)c1 | 12% | -1.74
7 | CC(C)(C)CC(=O)N1CC(Nc2ncccn2)C1 | -11% | 1.23
8 | CN1CC2(CCN(C(=O)c3ccccc3O)CC2)C[C@@H](c2ccccc2)C1=O | -14% | 1.81
9 | CCn1ncc2ccc(NC(=O)N[C@@H](C)C(=O)NCc3ccccc3)cc21 | 4% | -0.54
10 | O=C(c1conc1-c1ccccc1)N1CCN2C(=O)OC[C@H]2C1 | -2% | 0.41
11 | Cc1noc(C)c1CCC(=O)NCc1cc2n(n1)CCN(C1CCCCC1)C2 | -1% | 0.18
12 | CCOC(=O)C[n+]1c(Cc2ccccc2)sc2ccccc21 | -19% | 2.87
13 | Cc1nc2n(n1)C[C@@H](C(=O)N1CCCc3c(Cl)ccc(F)c31)CC2 | -1% | 0.11
14 | COc1ccccc1CN(C(C)=O)C1CC(C)(C)N(C(C)=O)C(C)(C)C1 | 1% | -0.08
15 | C[C@]1(c2ccc(S(C)(=O)=O)cc2)NC(=O)N(c2ccc(Cl)cn2)C1=O | -27% | 3.12
16 | Nc1ccc(C(=O)N2CCC3(CCC(=O)N(CCc4c[nH]cn4)C3)CC2)cn1 | -15% | 2.22
17 | O=C(Cc1c[nH]c(=O)[nH]c1=O)N1CCC[C@H](c2[nH]ncc2Cc2ccccc2)C1 | -11% | 1.07
18 | Cn1c(OC2CCCC2)nc2cccnc21 | -5% | 0.68
19 | Cc1ccc(CN2CCCN(c3ccc(C(=O)N4CCN(c5ccccc5)CC4)cc3)C2=O)cc1 | 8% | -1.36
20 | CN(Cc1nc(Cc2ccccc2F)no1)CC1(N2CCOCC2)CCCCC1 | -7% | 0.93
21 | CC[C@@H](C#N)S(=O)(=O)N1CCN(CC)c2ccccc21 | 5% | -0.49

Row | SMILES | % Inhibition | Z score
22 | CN1CCO[C@@H]2CN(C(=O)c3cnc4c(c3)c(C(C)(C)C)nn4C)C[C@@H]21 | -23% | 2.91
23 | Cc1ccc(C(=O)N/C(=N/c2cccc(C)c2C)NCc2cccnc2)cc1 | -9% | 1.47
24 | Cc1nnc(-c2ccc3ccn(CC(=O)Nc4ccc(F)c(Cl)c4)c3c2)o1 | 85% | -10.55
25 | CS(=O)(=O)C1CC2CCC(C1)N2C(=O)CCc1ccc(Cl)c(F)c1 (centres undefined) | -22% | 2.86
26 | O=C1NCCN(C(=O)c2cc(F)cc(F)c2)[C@H]1Cc1ccccc1 | -18% | 2.46
27 | O=C(c1cc2nc(-c3ccc(Br)cc3)cc(C(F)(F)F)n2n1)N1CCN(C(c2ccccc2)c2ccccc2)CC1 | -1% | 0.2
28 | COCCN1C[C@@H]2c3ccc(OC)cc3OC[C@]2(CO)C1 | -13% | 2.53
29 | Nc1ccc2nn(-c3cccc4ccccc34)nc2c1 | 6% | -1.05
30 | CCn1cc(Cl)c(-c2nnc(Nc3cn(C)nc3C)s2)n1 | -4% | 0.56
31 | O=C(NC1CC1)[C@H]1CCCN(C2CCN(CCCc3ccccc3)CC2)C1 | 5% | -0.55
32 | Clc1ccc(NCC2CC2)cc1Cl | -11% | 1.71
33 | O=C(CCN1CCCC1=O)N[C@@H]1COCC[C@@H]1Oc1cccc(F)c1 | -10% | 1.92
34 | NC(=O)c1c(F)cccc1NCC(C1CC1)C1CC1 | 16% | -2.02
35 | Cc1ccc(N2C[C@H](C(=O)O)[C@@H](C(C)C)C2)nn1 | -13% | 1.69
36 | COc1ccc(CN[C@@H]2CN(Cc3ccccc3)C(C)(C)C2)cn1 | -9% | 0.81
37 | CC(=O)NCC1CN(C(C(=O)NC2CC2)c2ccc(F)cc2)CCO1 (centres undefined) | -7% | 1.16
38 | COc1ccc(CCN2Cc3cc(NC(=O)c4ccc(Cl)c(Cl)c4)ccc3O[C@@H](C)C2=O)cc1OC | -10% | 0.92
39 | C[C@H](NC(=O)Nc1ccncc1F)C1CC1 | -11% | 1.64
40 | COC(=O)NCC(=O)N1CCC[C@@]2(CCC(=O)N(Cc3ccncc3)C2)C1 | 11% | -1.46
41 | CCCCN(CC(N)=O)S(=O)(=O)Cc1cc(Cl)cc(Cl)c1 | -10% | 2.22
42 | Cn1ccnc1[C@@H](NC(=O)c1cc(F)cc2ccoc12)C(C)(C)CO | -13% | 1.41
